{
  "source": "the supplement of paper PMC3334620",
  "note": "The full ranking holds about 33,000 sequences; the median of “E-score (-0.5 to 0.5)” is about -0.021, and the highest 2% start at about 0.32. The list shows a part of the results.",
  "data": [
    {"target": "T1, Zap1 (UniProt P47043)", "T1 sequence": "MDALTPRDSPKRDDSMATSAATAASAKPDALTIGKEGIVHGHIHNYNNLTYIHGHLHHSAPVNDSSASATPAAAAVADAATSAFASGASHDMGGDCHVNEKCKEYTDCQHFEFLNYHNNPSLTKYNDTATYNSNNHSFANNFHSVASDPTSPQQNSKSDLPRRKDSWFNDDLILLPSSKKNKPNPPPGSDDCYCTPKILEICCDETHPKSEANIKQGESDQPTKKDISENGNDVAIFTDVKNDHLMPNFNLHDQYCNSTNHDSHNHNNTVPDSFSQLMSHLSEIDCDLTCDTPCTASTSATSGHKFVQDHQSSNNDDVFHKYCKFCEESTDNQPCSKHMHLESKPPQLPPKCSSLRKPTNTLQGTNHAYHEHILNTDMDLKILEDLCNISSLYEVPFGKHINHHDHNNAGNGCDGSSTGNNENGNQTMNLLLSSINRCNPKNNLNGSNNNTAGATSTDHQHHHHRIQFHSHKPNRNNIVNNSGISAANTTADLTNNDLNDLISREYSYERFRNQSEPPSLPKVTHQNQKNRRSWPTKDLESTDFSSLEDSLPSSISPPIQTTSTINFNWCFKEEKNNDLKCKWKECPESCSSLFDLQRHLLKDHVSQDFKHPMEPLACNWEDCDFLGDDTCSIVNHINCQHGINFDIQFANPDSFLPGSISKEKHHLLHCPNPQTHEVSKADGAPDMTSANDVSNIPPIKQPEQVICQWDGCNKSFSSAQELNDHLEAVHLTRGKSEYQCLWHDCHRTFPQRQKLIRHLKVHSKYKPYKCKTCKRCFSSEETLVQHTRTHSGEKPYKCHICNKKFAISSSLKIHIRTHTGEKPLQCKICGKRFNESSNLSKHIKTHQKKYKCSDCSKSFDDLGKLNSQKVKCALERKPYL", "assay": "PBM E-score (8-mer binding enrichment) (E-score (-0.5 to 0.5)); higher = stronger / more preferred TF binding; most listed sequences are background and not binding sites", "settings": "protein concentration: 200 nM; construct: GST-full length", "procedure,_shortened": "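Using PURExpress in vitro transcription/translation, GST-tagged yeast transcription factors were made in full-length or DNA-binding-domain form. These were applied at about 100-200 nM to double-stranded universal all-10-mer Agilent arrays, and bound protein was detected with fluorescent anti-GST. Scans were normalised with masliner before the Universal PBM Analysis Suite assigned E-scores to ungapped eight-base words pooled with their reverse complements.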", "values": [
      {"sequence": "CACAGAAG", "PBM E-score": -0.0477},
      {"sequence": "ACGATATA", "PBM E-score": 0.0765},
      {"sequence": "TCATCCGA", "PBM E-score": 0.202},
      {"sequence": "CCGACGCG", "PBM E-score": -0.133},
      {"sequence": "TAGCAGCA", "PBM E-score": -0.0224},
      {"sequence": "ACATGCTC", "PBM E-score": -0.116},
      {"sequence": "TAATGGGA", "PBM E-score": -0.234},
      {"sequence": "ATATAAGC", "PBM E-score": -0.0201},
      {"sequence": "CCGTGCCA", "PBM E-score": -0.322},
      {"sequence": "CACGAAAC", "PBM E-score": -0.0882},
      {"sequence": "GGCAAAAC", "PBM E-score": -0.00371},
      {"sequence": "GCAATACC", "PBM E-score": 0.191},
      {"sequence": "AGGACAAC", "PBM E-score": 0.116},
      {"sequence": "GCGACCTA", "PBM E-score": 0.00631},
      {"sequence": "CCTAAGCG", "PBM E-score": -0.112},
      {"sequence": "GCTGGTGA", "PBM E-score": 0.0777},
      {"sequence": "ATAAAAGG", "PBM E-score": 0.25},
      {"sequence": "GAAATTTA", "PBM E-score": 0.0377},
      {"sequence": "GGAAAGAC", "PBM E-score": -0.213},
      {"sequence": "AGTCCAAG", "PBM E-score": 0.00822},
      {"sequence": "TCTATTAA", "PBM E-score": 0.123},
      {"sequence": "GCTGTGAC", "PBM E-score": 0.0557},
      {"sequence": "ACGACTAC", "PBM E-score": -0.117},
      {"sequence": "CTATAGGA", "PBM E-score": -0.0709},
      {"sequence": "TCTGTTCA", "PBM E-score": -0.0546},
      {"sequence": "ATCCTCCA", "PBM E-score": -0.187},
      {"sequence": "ACACCCCA", "PBM E-score": 0.0819},
      {"sequence": "CAACAGTG", "PBM E-score": -0.0935},
      {"sequence": "CGATTGAG", "PBM E-score": 0.0636},
      {"sequence": "ACTATGAG", "PBM E-score": -0.127},
      {"sequence": "GAATTATA", "PBM E-score": 0.105},
      {"sequence": "CTACTACA", "PBM E-score": 0.0823},
      {"sequence": "AATGTCGA", "PBM E-score": 0.107},
      {"sequence": "GGAAGAAC", "PBM E-score": 0.115},
      {"sequence": "CGACGACA", "PBM E-score": -0.113},
      {"sequence": "AGGAGTCA", "PBM E-score": -0.0639},
      {"sequence": "CGTTCGAG", "PBM E-score": -0.0294},
      {"sequence": "ACCACGGC", "PBM E-score": 0.0275},
      {"sequence": "CAATTGTC", "PBM E-score": 0.028},
      {"sequence": "ACACTACG", "PBM E-score": -0.0863},
      {"sequence": "ATCTCGGA", "PBM E-score": -0.0207},
      {"sequence": "GACTTATA", "PBM E-score": 0.189},
      {"sequence": "GCATTGTA", "PBM E-score": -0.0386},
      {"sequence": "AGTGTCGA", "PBM E-score": 0.127},
      {"sequence": "ACAGGAAC", "PBM E-score": 0.0522},
      {"sequence": "CGGGCTTC", "PBM E-score": -0.211},
      {"sequence": "GGCGACGA", "PBM E-score": -0.183},
      {"sequence": "TTCATAAA", "PBM E-score": 0.0271},
      {"sequence": "AAATGCGA", "PBM E-score": 0.102},
      {"sequence": "ACGTGGCA", "PBM E-score": -0.291},
      {"sequence": "CCGCCTCG", "PBM E-score": 0.0926},
      {"sequence": "AGGTTGTA", "PBM E-score": 0.338},
      {"sequence": "ACCCACGG", "PBM E-score": 0.0434},
      {"sequence": "GCGCGGAC", "PBM E-score": 0.054},
      {"sequence": "GTAATTTA", "PBM E-score": 0.0558},
      {"sequence": "ACCTGAAT", "PBM E-score": 0.136},
      {"sequence": "CCCTGGTC", "PBM E-score": -0.13},
      {"sequence": "CCCAATGC", "PBM E-score": -0.146},
      {"sequence": "ACCAAAGG", "PBM E-score": 0.109},
      {"sequence": "CGTTTTAA", "PBM E-score": 0.149},
      {"sequence": "CTAGATTC", "PBM E-score": -0.113},
      {"sequence": "ATCGAACA", "PBM E-score": 0.15},
      {"sequence": "CTAACTCA", "PBM E-score": 0.0162},
      {"sequence": "ACATTTTA", "PBM E-score": 0.177},
      {"sequence": "GCGTTCGA", "PBM E-score": 0.0467},
      {"sequence": "CGGATGGC", "PBM E-score": -0.135},
      {"sequence": "CTACTCAC", "PBM E-score": 0.0123},
      {"sequence": "ATTCGGGC", "PBM E-score": -0.247},
      {"sequence": "ACTCCACA", "PBM E-score": -0.0594},
      {"sequence": "AACGGTTG", "PBM E-score": 0.123},
      {"sequence": "ACGAATTA", "PBM E-score": -0.112},
      {"sequence": "AGACGGAA", "PBM E-score": -0.142},
      {"sequence": "TCCCTAAA", "PBM E-score": -0.0128},
      {"sequence": "GAGTATAA", "PBM E-score": 0.0781},
      {"sequence": "AAAGTGAA", "PBM E-score": 0.0771},
      {"sequence": "AAGTGACT", "PBM E-score": -0.104},
      {"sequence": "CCTGGTGA", "PBM E-score": 0.0199},
      {"sequence": "CAATCTCC", "PBM E-score": -0.155},
      {"sequence": "AACCCGAC", "PBM E-score": 0.244},
      {"sequence": "GCCAGAGC", "PBM E-score": -0.311},
      {"sequence": "CCCGCCAA", "PBM E-score": -0.0257},
      {"sequence": "AGCCCAAA", "PBM E-score": 0.0444},
      {"sequence": "GGCGCAAA", "PBM E-score": -0.0447},
      {"sequence": "CGGGCGGC", "PBM E-score": -0.192},
      {"sequence": "ACAGCAGT", "PBM E-score": -0.0406},
      {"sequence": "ATGTTTCC", "PBM E-score": 0.108}
    ]}
  ]
}
